{"source": "PubChem BioAssay AID894", "about": "(National Center for Advancing Translational Sciences (NCATS), 2007)", "note": "“And” between values parts separate entries of the source, which are not always exact repeats. Equal values may be shown once. About 6,500 (4.3%) of roughly 150,000 compounds were called active. The shares of active, inactive and inconclusive entries below differ from those in the screen. The call rests on the fitted dose curve; in most records, active means well fitted inhibition curve with a large enough effect (not every such curve was filed as active); inconclusive means small, poorly fitted or top-dose-only effect, or another doubt; inactive means no such curve, though single readings can be large or run the other way. Potencies of inconclusive entries are left out as doubtful fits. On the % scale 0 is the no-effect control and ±100 the full control effect; potency means the concentration at half of the fitted maximal effect; tags describe the fitted curve by direction and shape."}
{"target": "15-hydroxyprostaglandin dehydrogenase [NAD(+)] (Homo sapiens) (UniProt P15428)", "sequence (P15428 whole entry, looked up)": "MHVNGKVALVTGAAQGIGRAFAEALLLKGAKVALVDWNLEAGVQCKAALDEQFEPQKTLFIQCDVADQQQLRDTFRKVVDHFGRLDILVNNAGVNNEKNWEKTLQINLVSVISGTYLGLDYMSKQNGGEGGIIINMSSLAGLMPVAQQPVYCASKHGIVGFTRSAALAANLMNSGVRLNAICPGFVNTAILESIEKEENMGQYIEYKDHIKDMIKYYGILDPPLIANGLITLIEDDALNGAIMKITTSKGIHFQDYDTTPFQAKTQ", "assay": "qHTS Assay for Inhibitors of HPGD (15-Hydroxyprostaglandin Dehydrogenase)", "conditions": "purified HPGD, NADH fluorescence kinetic, PGE2 substrate; activity change, negative = inhibition: active compounds read low", "summary_of_the_method": "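20 nM HPGD preincubated 15 min at room temperature with compound in 50 mM Tris-HCl pH 8, 0.01% Tween 20. Started with 1 mM NAD+ and 30 uM prostaglandin E2; NADH fluorescence (360/450 nm) read 5 times over 30-s intervals, last minus first.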"}
{"smiles": "N#Cc1nc(-c2ccc(F)cc2)oc1NCc1cccc2c1OCO2", "Potency": "inconclusive [inhibitor, partial curve]"}
{"smiles": "O=C(Nc1sc2c(c1-c1nc3ccccc3[nH]1)CCCC2)C1CCCC1", "Potency": "inconclusive [inhibitor, partial curve]"}
{"smiles": "N/C(COc1cccc(C(F)(F)F)c1)=N\\NC(=O)c1cccnc1Oc1ccccc1", "activity change, negative = inhibition": "inactive: -5.74%"}
{"smiles": "O=[N+]([O-])c1nn(-c2ccc3c(c2)OCCO3)n(O)c1=NC1CCCCCC1", "activity change, negative = inhibition": "inactive: -4.46%"}
{"smiles": "O=c1cc(-c2ccccc2)oc2cc(O)c(O)c(O)c12", "Potency": "active: 3.16 µM and active: 7.94 µM and active: 28.2 µM"}
{"smiles": "COc1cc(NC(=O)c2ncn[nH]2)cc(OC)c1OC", "Potency": "inconclusive [inhibitor, partial curve]"}
{"smiles": "COc1cccc(C(=O)Oc2cc3c4c(c2)C(C)=CC(C)(C)N4C(=O)C3=O)c1", "Potency": "active: 28.2 µM"}
{"smiles": "C[Si](C)(c1ccc(C(=O)O)cc1)c1ccc(C(=O)O)cc1", "Potency": "active: 0.199 µM"}
{"smiles": "CCOC(=O)c1sc2nc(N3CCOCC3)c3c(c2c1N)CCN(C)C3", "Potency": "inconclusive [inhibitor, partial curve]"}
{"smiles": "O=C(c1cc2ccccc2o1)c1nc2c(n1O)CCCCC2", "Potency": "active: 14.1 µM"}
{"smiles": "N#Cc1cc(-c2ccccc2)nc(Oc2ccccc2)n1", "Potency": "inconclusive [inhibitor, partial curve]"}
{"smiles": "CCN(CC)c1ccc(/C=N/NC(=O)c2cccc(S(=O)(=O)N3CCOCC3)c2)cc1", "Potency": "inconclusive [inhibitor, partial curve]"}
{"smiles": "COC(=O)c1cc(-c2ccccc2)n(CC(=O)O)c1C", "Potency": "inconclusive [inhibitor, partial curve]"}
{"smiles": "Nc1nnc(-c2ccccc2Cl)s1", "Potency": "inconclusive [inhibitor, partial curve]"}
{"smiles": "CCCCCn1c(=O)[nH]c2cc(C(=O)NCc3ccc4c(c3)OCO4)ccc2c1=O", "Potency": "inconclusive [inhibitor, partial curve]"}
{"smiles": "CCC1SC2=NC(C)=C(C(=O)OCCOC)C(/C=C/c3ccccc3OC)N2C1=O", "note": "(configuration not stated)", "Potency": "inconclusive [inhibitor, partial curve]"}
{"smiles": "COCCNC(=O)CCSCc1ccccc1F", "Potency": "active: 25.1 µM"}
{"smiles": "O=C(NC1CCCCC1)c1cc2nc3c(c(C(F)(F)F)n2n1)CCCC3", "Potency": "active: 28.2 µM"}
{"smiles": "O=C(C1COc2ccccc2O1)N1CCc2ccccc2C1", "note": "(configuration not stated)", "Potency": "active: 7.08 µM"}
{"smiles": "O=C(COC(=O)c1cc(S(=O)(=O)NCc2ccccc2)ccc1O)NCc1ccccc1", "Potency": "inconclusive [inhibitor, partial curve]"}
{"smiles": "O=c1c2ccccc2nc(SCc2cc([N+](=O)[O-])cc3c2OCOC3)n1-c1ccccc1", "activity change, negative = inhibition": "inactive: -1.73%"}
{"smiles": "Cc1ccc(N2C(=O)CC(Sc3ncn[nH]3)C2=O)cc1C", "note": "(configuration not stated)", "Potency": "active: 3.16 µM"}
{"smiles": "CCCCCCCn1c(=N)n(CC(=O)c2ccco2)c2ccccc21", "activity change, negative = inhibition": "inactive: -6.34%"}
{"smiles": "CCn1c(CSc2nc3ccccc3s2)nnc1SCC(=O)c1ccc(O)c(O)c1", "Potency": "inconclusive [inhibitor, full curve]"}
{"smiles": "CCn1cc(Cl)c(C(=O)N2N=C3/C(=C/c4cccs4)CCCC3C2c2cccs2)n1", "note": "(configuration not stated)", "Potency": "inconclusive [inhibitor, partial curve]"}
{"smiles": "Cn1c2ccccc2c2c(C(=O)NCC3CCCO3)cn(C3CCCC3)c(=O)c21", "note": "(configuration not stated)", "Potency": "inconclusive [inhibitor, partial curve, poor fit]"}
{"smiles": "COc1ccc(C2/C(=C(/O)c3ccccc3)C(=O)C(=O)N2CC(C)O)c(OC)c1", "note": "(configuration not stated)", "activity change, negative = inhibition": "inactive: -8.88%"}
{"smiles": "COc1cc(/C=N/Nc2ncc(C(F)(F)F)cc2Cl)cc(OC)c1OC", "Potency": "inconclusive [inhibitor, single point]"}
{"smiles": "CCOC(=O)C1(C)C=C(Nc2ccc(O)cc2)C(=O)N1c1ccc(O)cc1", "note": "(configuration not stated)", "activity change, negative = inhibition": "inactive: -5.67%"}
{"smiles": "CC(=O)c1cc2c(cc1NC(=O)CSc1nc3ccccc3o1)OCO2", "activity change, negative = inhibition": "inactive: -24.6%"}
{"smiles": "O=C(O)/C=C\\c1c2ccc(=O)c(O)c-2oc2c(O)c(O)ccc12", "Potency": "active: 2.82 µM"}
{"smiles": "COc1ccccc1N(CC(=O)Nc1cc(C)on1)S(=O)(=O)c1ccc(Cl)cc1", "Potency": "active: 14.1 µM"}
{"smiles": "O=C(NCCN1CCOCC1)C1CCC(CNS(=O)(=O)c2ccc(Cl)cc2)CC1", "note": "(configuration not stated)", "activity change, negative = inhibition": "inactive: -4.84%"}
{"smiles": "COc1ccc(-c2cnnn2-c2ccc(NC(=O)c3ccc(S(=O)(=O)N4CCCCC4)cc3)cc2)cc1OC", "Potency": "inconclusive [inhibitor, partial curve]"}
{"smiles": "O=C(NCCCN1CCCC1=O)c1ccc2c(c1)OCO2", "Potency": "inconclusive [inhibitor, single point]"}
{"smiles": "COc1ccc(C(=O)N2CCC(=O)N(C(CO)Cc3ccccc3)CC2)cc1", "note": "(configuration not stated)", "activity change, negative = inhibition": "inactive: -0.587%"}
{"smiles": "COc1ccc(CCNC(=O)COC(=O)Cc2cccc3ccccc23)cc1", "Potency": "inconclusive [inhibitor, partial curve]"}
{"smiles": "CN1CCN(C(=O)C2CCC(CNS(=O)(=O)c3cccc4cccnc34)CC2)CC1", "note": "(configuration not stated)", "Potency": "active: 15.8 µM"}
{"smiles": "CC(C)c1nc(SCC(=O)Nc2nc3c(s2)CCCC3)c2ccccc2n1", "Potency": "inconclusive [inhibitor, single point]"}
{"smiles": "CC1CC1C(=O)Nc1nc(-c2cccs2)c(-c2cccs2)s1", "note": "(configuration not stated)", "Potency": "inconclusive [inhibitor, single point]"}
{"smiles": "CCN(CC)c1ccc(NC(=O)CN2CCN(c3nc(C)cc(C)n3)CC2)cc1", "Potency": "inconclusive [inhibitor, single point]"}
{"smiles": "COc1ccccc1OCC(=O)Sc1ccc(C)cc1", "Potency": "active: 31.6 µM"}
{"smiles": "Cc1onc(-c2ccccc2)c1C(=O)N1CCC(C)CC1", "activity change, negative = inhibition": "inactive: -9.56%"}
{"smiles": "C=CCNC(=O)CCCOc1cccc(C)c1", "Potency": "inconclusive [inhibitor, partial curve]"}
{"smiles": "COc1ccc(C2=NN(c3nc(-c4ccccc4)c(CC(=O)O)s3)C(c3ccco3)C2)cc1", "note": "(configuration not stated)", "Potency": "inconclusive [inhibitor, single point]"}
{"smiles": "Cc1ccc(S(=O)(=O)c2ccc(Cl)cc2)cc1S(=O)(=O)N(C)CC(=O)O", "Potency": "inconclusive [inhibitor, single point]"}
{"smiles": "COc1cccc2c(=O)cn[nH]c12", "Potency": "inconclusive [inhibitor, partial curve]"}
{"smiles": "COC(=O)C1=C(C(=O)OC)SC2(S1)C(C(=O)OC)=C(C(=O)OC)SC1=C2c2cc(C)ccc2NC1(C)C", "Potency": "active: 10 µM"}
{"smiles": "N#Cc1c(N)n(CCc2ccc(F)cc2)c2nc3ccccc3nc12", "Potency": "inconclusive [inhibitor, partial curve]"}
{"smiles": "CC(C)(C)c1ccc(S(=O)(=O)NCc2ccc(C(=O)N3CCCC3)cc2)cc1", "Potency": "inconclusive [inhibitor, partial curve]"}
{"smiles": "O=C(c1ccco1)N1CCC2(CCCN(c3cccc(-c4ccccc4)c3)C2)CC1", "activity change, negative = inhibition": "inactive: -7.18%"}
{"smiles": "O=C(Cc1cccs1)NCc1ccc2c(c1)OCO2", "Potency": "active: 15.8 µM"}
{"smiles": "O=C(NCc1ccc2c(c1)OCO2)c1cccnc1", "Potency": "inconclusive [inhibitor, partial curve, poor fit]"}
{"smiles": "Cc1ccc2nc(CSc3nnc(Nc4ccccc4F)s3)cc(=O)n2c1", "Potency": "inconclusive [inhibitor, partial curve]"}
{"smiles": "CCn1ncc(/C=N\\NC(=O)Cc2ccc([N+](=O)[O-])cc2)c1C", "activity change, negative = inhibition": "inactive: -9.46%"}
{"smiles": "COC(=O)C1=C(O)CSC1=Nc1ccccc1", "Potency": "inconclusive [inhibitor, partial curve, poor fit]"}
{"smiles": "Clc1ccc(CSc2nnc(/C=C/c3ccccc3)o2)cc1", "Potency": "inconclusive [inhibitor, single point]"}
{"smiles": "N#Cc1c(NC(=O)c2ccccc2)sc2c1CCC2", "Potency": "inconclusive [inhibitor, partial curve]"}
{"smiles": "Cc1cccc(Cn2nnc3c2C(=O)c2ccccc2C3=O)c1", "Potency": "active: 14.1 µM"}
{"smiles": "Clc1ccc(OCCn2c(-c3ccco3)nc3ccccc32)cc1", "Potency": "inconclusive [inhibitor, single point]"}
{"smiles": "Cn1c(=O)c2[nH]c(-c3ccccc3)c(O)c2n(C)c1=O", "Potency": "inconclusive [inhibitor, partial curve]"}
{"smiles": "COc1cc(CC(=O)OCC(=O)Nc2ccc3c(c2)OCCO3)cc(OC)c1OC", "activity change, negative = inhibition": "inactive: -12.6%"}
{"smiles": "CCCCc1nc(NCC2CCCO2)c(C#N)c2c1COC(C)(C)C2", "note": "(configuration not stated)", "Potency": "inconclusive [inhibitor, partial curve]"}
{"smiles": "CCS(=O)(=O)Nc1ccc(C(=O)OC)cc1", "Potency": "active: 14.1 µM"}
{"smiles": "Cn1c(SCc2n[nH]c(=S)o2)nnc1-c1ccccc1", "activity change, negative = inhibition": "inactive: -7.44%"}
{"smiles": "CCC(=O)c1ccc(OCC(O)CN2CCOCC2)cc1", "note": "(configuration not stated)", "activity change, negative = inhibition": "inactive: 0.164%"}
{"smiles": "S=c1[nH]nc(Cc2ccccc2)n1-c1cccc2ccccc12", "Potency": "active: 15.8 µM"}
{"smiles": "CCN(C(=O)Cc1cccs1)c1nnc(-c2cc(OC)c(OC)c(OC)c2)s1", "Potency": "inconclusive [inhibitor, partial curve]"}
{"smiles": "CCn1cc(C(=O)NCc2ccco2)c2cc(OC)c(OC)cc2c1=O", "Potency": "inconclusive [inhibitor, partial curve, poor fit]"}
{"smiles": "CCN(CC)S(=O)(=O)c1ccc2nnn(OCC(=O)Nc3cccc(C#N)c3)c2c1", "activity change, negative = inhibition": "inactive: -6.83%"}
{"smiles": "COc1cc2oc(-c3ccccc3)cc(=O)c2cc1OC", "Potency": "inconclusive [inhibitor, partial curve]"}
{"smiles": "COc1cccc(OCc2cc(C3Nc4ccccc4C(=O)N3Cc3ccco3)ccc2OC)c1", "note": "(configuration not stated)", "Potency": "inconclusive [inhibitor, partial curve]"}
